Experimental data as given in PubChem BioAssay AID485297 (National Center for Advancing Translational Sciences (NCATS), 2010).
The whole screen tested about 320,000 compounds, of which about 9,100 (2.8%) were called active. The shares of active, inactive and inconclusive entries below differ from those in the screen. The call rests on the fitted dose curve; in most records, active means well fitted activation curve with a large enough effect; inconclusive means small, poorly fitted or top-dose-only effect; inactive means no such curve, though single readings can be large or run the other way. Where the call is inconclusive, the potency comes from a doubtful curve fit.

experiment: qHTS Assay for Rab9 Promoter Activators; conditions: Huh7 Rab9 promoter-luciferase reporter, luminescence, 24 h; series mostly up to 9.22 µM; activation, negative = inhibition: at the top concentration; further: nearly all actives have a fitted effect of over 60% in size; on activation, negative = inhibition: % of control where 0% means no effect
In short: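 Using Huh7 cells stably transfected with Rab9 promoter–luciferase, compounds were incubated 24 h at 37 °C, 5% CO2; luciferase luminescence was read 10 min after reagent addition.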
Potency means the concentration at half of the fitted maximal effect; tags describe the fitted curve by direction and shape.

Potency, inconclusive:
CN1CCN(c2ccc(NC(=O)c3ccccc3Br)cc2)CC1 5.62 µM [activator, single point]
COc1cccc(OCc2cc(C(=O)N(C)CCC3CCCCO3)no2)c1 (configuration not stated) 3.16 µM [activator, single point]
CC(C)(C)C1CCC(=O)N(CCOc2ccccc2)CC1 (configuration not stated) 3.98 µM [activator, partial curve]
Nc1ccccc1C(=O)N/N=C1/C2CN3CCN(C2)CC1(Cc1ccccc1)C3 1.12 µM [activator, single point]
COCCN(Cc1nc(-c2ccc(-c3ccccc3)cc2)oc1C)C(C)C 0.0794 µM [activator, full curve]
Cc1nn2c(-c3ccccc3)ccnc2c1-c1ccccc1 4.47 µM [activator, partial curve]
CCn1nc(NC(=O)C2CCCO2)c2cc3cc(C)ccc3nc21 (configuration not stated) 3.55 µM [activator, partial curve]
Cc1ccc(C(=O)Nc2cccnc2Cl)cc1Cl 2.82 µM [activator, partial curve]
Cc1cccc(-n2ncc3c(N)ncnc32)c1 1.12 µM [activator, partial curve]
O=C(CCSc1ccccc1)Nc1ccccc1Br 5.62 µM [activator, single point]
CN(C)S(=O)(=O)c1ccc(C(=O)Nc2ccccn2)cc1 2.82 µM [activator, partial curve]
CC(=O)Oc1ccc(-c2nc(-c3cccnc3)no2)cc1 3.55 µM [activator, single point]
CSc1nnc(-c2cc3c(s2)-c2ccccc2CC3)o1 5.62 µM [activator, single point]
O=C(NCc1ccccc1)c1cccc(COc2cccc(Cl)c2)c1 1.58 µM [activator, partial curve]
COC(=O)c1sccc1NC(=O)/C=C/c1ccc(Cl)cc1 3.55 µM [activator, partial curve]
CNc1nc(-c2ccc([N+](=O)[O-])cc2)cs1 3.98 µM [activator, partial curve]
O=C(Nc1cccc(-c2nc3ncccc3o2)c1)c1sc2ccccc2c1Cl 0.447 µM [activator, full curve]
Cc1ccc2nc(CSc3nc(C)cc(C)c3C#N)[nH]c2c1 3.98 µM [activator, single point]
COc1ccc(/C(C)=N/N2C(=O)c3ccccc3NC2c2ccc(O)c(OC)c2)cc1 (configuration not stated) 5.62 µM [activator, single point]
CCN1CCN(c2ccc(NC(=O)c3ccc4c(c3)OCO4)cc2)CC1 3.55 µM [activator, partial curve]
COc1ccc(CCNC(=O)COC(=O)c2cc(S(=O)(=O)N3CCCC3)ccc2O)cc1 1.26 µM [activator, single point]
Cc1cccc(NC(=O)COc2ccccc2C)n1 4.47 µM [activator, partial curve]
CCOC(=O)c1cnc(NCc2ccccc2)nc1C 2.82 µM [activator, partial curve]
COc1ccc(C(=O)NCCc2ccccc2)cc1[N+](=O)[O-] 5.62 µM [activator, single point]
Cc1ccc(NC(=O)C2=NNC(=O)CC2)cc1F 3.98 µM [activator, single point]
COc1ccc(CNC(=O)Cc2cccs2)cc1 3.16 µM [activator, partial curve]
O=C(Nc1cnc2sccn2c1=O)c1ccccc1Cl 1.26 µM [activator, partial curve]
COc1ccc(Br)cc1/C=N/NC(=O)c1ccc(COc2ccc3c(c2)CCC3)o1 2.51 µM [activator, partial curve]
COc1ccc(Br)c(C(=O)Nc2nc3ccccc3[nH]2)c1 6.31 µM [activator, partial curve]
O=C(Nc1ccccc1F)c1ccc(Cn2cc(Cl)cn2)cc1 3.16 µM [activator, single point]
CCc1c(C)nc2cc(-c3ccc(OC)cc3)[nH]n2c1=O 3.55 µM [activator, partial curve]
CC(NC(=O)c1cc(COc2c(F)cccc2F)on1)c1cnn(-c2ccccc2)c1 (configuration not stated) 3.55 µM [activator, single point]
O=C1CCCCCN1Cc1nnc(SCc2nc3ccccc3s2)n1-c1ccccn1 3.16 µM [activator, single point]
O=C(Nc1ccccc1Cl)c1cc(=O)c2ccccc2o1 4.47 µM [activator, single point]
O=C(/C=C(\O)c1ccccc1)C(=O)NNC(=O)c1ccccc1 3.55 µM [activator, partial curve]
O=c1cc(Nc2ccc3c(c2)OCO3)[nH]c(=O)n1-c1ccc(Br)cc1 1.26 µM [activator, single point]
Cc1nccc(-c2sc(-c3cccs3)nc2C)n1 3.55 µM [activator, single point]
Cc1ccc(NC(=O)Nc2ccc(F)c(Cl)c2)cc1 2 µM [activator, partial curve]
COc1cccc(NC(=O)c2ccc(NC(=O)C(C)C)cc2)c1 5.01 µM [activator, partial curve]
C/C(=N\NC(=O)CC(C)C)c1c(C(F)(F)F)[nH]n(-c2nc3ccccc3s2)c1=O 2.51 µM [activator, partial curve]
Cc1nc(-c2ccc(C(=O)O)cc2)cs1 1.26 µM [activator, single point]
CC1(C(=O)Nc2nc3ccccc3s2)CC1(Br)Br (configuration not stated) 2.82 µM [activator, partial curve]
O=c1cnnc(SCCc2ccccc2)[nH]1 5.62 µM [activator, single point]
COC(=O)COc1ccc(S(=O)(=O)N2CCc3ccccc3C2)cc1C 6.31 µM [activator, single point]
C/C(=N\OC(=O)c1ccc(F)cc1)c1ccc(F)c(F)c1 5.62 µM [activator, single point]

Potency, active:
CC(C)c1ccc(Nc2nnc(SCC(=O)c3nnc(-c4ccccc4)o3)s2)cc1 4.47 µM
COc1ccc2[nH]c3c(c2c1)CCn1c-3nc2ccccc2c1=O 0.251 µM
CC(C)CC(=O)Nc1ccc2c(c1)oc1ccccc12 1 µM
Cc1c(C(=O)OC2CCC(C)CC2)[nH]c2c1C(=O)CCC2 (configuration not stated) 0.447 µM
N=c1oc2cc(O)ccc2cc1C(=O)Nc1nc2ccccc2s1 3.16 µM
CC1CCCN(c2ccc(C(=O)NCCc3ccccc3)cn2)C1 (configuration not stated) 2.51 µM
CCOC(=O)c1sc(NC(=O)c2ccc(C)s2)cc1C 1.12 µM
CC(C)(C)c1ccc(C(=O)NCCc2ccccc2)cc1 0.0891 µM
COc1cccc(/C=N/n2cnc3ccccc32)c1OC 2.24 µM
COCC(=O)Nc1ccccc1C(=O)Nc1ccc(OC)cc1 2.82 µM
O=C1C=C(Nc2ccccc2)C(=O)c2ccccc21 1 µM
COc1ccc2nc(NC(=S)N(C)C)sc2c1 0.631 µM
N#Cc1cn(-c2ccccc2)nc1-c1ccc2c(c1)OCCO2 3.98 µM
Cc1occc1C(=O)N/N=C/C=C/c1ccccc1 3.55 µM

activation, negative = inhibition, inactive:
CCOc1ccc(NC(=O)CSc2nnc(-c3ccco3)n2N)cc1 -7.88%
CCOc1ccc(N(CC(=O)NCCSCc2ccccc2)S(C)(=O)=O)cc1 4.98%
CCOc1ccc(S(=O)(=O)N2CCCCC2)cc1NC(=O)C1CSC2(C)CCC(=O)N12 (configuration not stated) -0.244%
CC(Sc1ccc(S(=O)(=O)N2CCN(C)CC2)cn1)C(=O)NC1CCCCC1 (configuration not stated) 1.16%
COc1ccc2oc(C(=O)Nc3ccc(N4CCOCC4)cc3)c(C)c2c1 1.7%
CC(=O)N1CCN(C(=O)c2cc3ccccc3o2)CC1 -2.02%
Cc1ccc(NC(=O)Cc2nc(COC(=O)Cc3cccc(C(F)(F)F)c3)cs2)cc1 13%
CCC(=O)NCc1nc2ccccc2n1Cc1ccccc1F -0.68%
Cc1ccc(C(=O)COC(=O)c2ccc(Br)o2)cc1C 16.1%
O=C(Nc1cccnc1)c1ccc(CSc2ccccc2)cc1 24%
Cn1ccc2cc(-c3ccc4ncnc(NCc5cccnc5)c4c3)ccc21 -1.55%
CSCCC(NC(=O)c1ccccc1)C(=O)N1CCCCCCC1 (configuration not stated) -7.23%
CC(C)N1CCN(Cc2ccc(C#CCCO)cc2)CC1CCO (configuration not stated) 9.38%
Clc1nc(Nc2ccc(N3CCOCC3)cc2)c2ccccc2n1 6.74%
CC(C)c1ccc(NC2CCCN(C(=O)CCn3cnnn3)C2)cc1 (configuration not stated) 11.9%
N#CC1=C(N)N(c2ccc(F)cc2)C2=C(C1c1ccc(O)cc1)S(=O)(=O)CC2 (configuration not stated) 1.43%
O=C(NC1CCCCC1)c1cc(S(=O)(=O)N2CCOCC2)c(Cl)cc1Cl 0.646%
CN(Cc1ccccc1)Cc1nc2c(c(=O)n(C)c(=O)n2C)n1Cc1ccc(F)cc1 2.2%
